The text below walks through data of PMC4950114.

By UniProt entry, the sequences of proteins in these tests, tags left out. Where a name states a change or a piece, a line headed by the entry shows the natural chain unless it says otherwise.
UniProt Q15286: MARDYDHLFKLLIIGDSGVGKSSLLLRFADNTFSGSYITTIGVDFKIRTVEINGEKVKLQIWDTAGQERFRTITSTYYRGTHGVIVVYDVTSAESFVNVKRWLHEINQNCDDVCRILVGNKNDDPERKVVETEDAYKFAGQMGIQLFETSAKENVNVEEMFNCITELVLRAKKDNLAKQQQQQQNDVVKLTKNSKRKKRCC

These are yes or no findings as the source states them, for the method shown. In cells and extracts the contact can be indirect. Some entries that bind do so weakly or less than the wild type. For some assays here: Sequences can lack the tags named with a protein.

The target of one experiment is GFP-RAB35, Q15286. The experiment is described as follows: co-IP; HEK293T cells cotransfected with GFP-RAB35 and/or HA-MICAL1; lysates immunoprecipitated with anti-GFP antibody at 4 °C overnight, protein A + G agarose, immunoblot. The conditions noted are these: remark: other sources report otherwise. A general note: A western blot detects proteins with antibodies after separation by electrophoresis.

The target of experiment [1] is GFP-tagged RAB35 (DN), RAB35-S22N (UniProt Q15286). As to the kind of experiment: co-IP; MCF-7 cells transfected with GFP-tagged RAB35 (WT), (DN) or (CA); immunoprecipitated with anti-GFP antibody, immunoblot for RAB35 and endogenous MICAL1.
Experiment [2] concerns the target GFP-tagged RAB35 (CA), RAB35-Q67L (UniProt Q15286). The experiment is described as above.
Experiment [3] addresses GFP-tagged RAB35 (WT), Q15286. Described as above. The note with it: remark: other sources report otherwise.
For experiment [4], the target named is endogenous RAB35 (human (endogenous in MCF-7 and MDA-MB-231)), Q15286. As to the kind of experiment: co-IP; endogenous RAB35 and endogenous MICAL1 in lysates of MDA-MB-231 and MCF-7 cells; which protein was precipitated is not told. The conditions noted are these: remark: other sources report otherwise.

B1: HA-MICAL1, Q8TDZ2 1-1067 (protein)
chain: MASPTSTNPAHAHFESFLQAQLCQDVLSSFQELCGALGLEPGGGLPQYHKIKDQLNYWSAKSLWTKLDKRAGQPVYQQGRACTSTKCLVVGAGPCGLRVAVELALLGARVVLVEKRTKFSRHNVLHLWPFTIHDLRALGAKKFYGRFCTGTLDHISIRQLQLLLLKVALLLGVEIHWGVTFTGLQPPPRKGSGWRAQLQPNPPAQLANYEFDVLISAAGGKFVPEGFKVREMRGKLAIGITANFVNGRTVEETQVPEISGVARIYNQSFFQSLLKATGIDLENIVYYKDDTHYFVMTAKKQCLLRLGVLRQDWPDTNRLLGSANVVPEALQRFTRAAADFATHGKLGKLEFAQDAHGQPDVSAFDFTSMMRAESSARVQEKHGARLLLGLVGDCLVEPFWPLGTGVARGFLAAFDAAWMVKRWAEGAESLEVLAERESLYQLLSQTSPENMHRNVAQYGLDPATRYPNLNLRAVTPNQVRDLYDVLAKEPVQRNNDKTDTGMPATGSAGTQEELLRWCQEQTAGYPGVHVSDLSSSWADGLALCALVYRLQPGLLEPSELQGLGALEATAWALKVAENELGITPVVSAQAVVAGSDPLGLIAYLSHFHSAFKSMAHSPGPVSQASPGTSSAVLFLSKLQRTLQRSRAKENAEDAGGKKLRLEMEAETPSTEVPPDPEPGVPLTPPSQHQEAGAGDLCALCGEHLYVLERLCVNGHFFHRSCFRCHTCEATLWPGGYEQHPGDGHFYCLQHLPQTDHKAEGSDRGPESPELPTPSENSMPPGLSTPTASQEGAGPVPDPSQPTRRQIRLSSPERQRLSSLNLTPDPEMEPPPKPPRSCSALARHALESSFVGWGLPVQSPQALVAMEKEEKESPFSSEEEEEDVPLDSDVEQALQTFAKTSGTMNNYPTWRRTLLRRAKEEEMKRFCKAQTIQRRLNEIEAALRELEAEGVKLELALRRQSSSPEQQKKLWVGQLLQLVDKKNSLVAEEAELMITVQELNLEEKQWQLDQELRGYMNREENLKTAADRQAEDQVLRKLVDLVNQRDALIRFQEERRLSELALGTGAQG
In the case of B1, the binding entry with GFP-RAB35, Q15286 is given as “binds”.

B2: endogenous MICAL1 (protein, UniProt Q8TDZ2 1-1067)
chain: MASPTSTNPAHAHFESFLQAQLCQDVLSSFQELCGALGLEPGGGLPQYHKIKDQLNYWSAKSLWTKLDKRAGQPVYQQGRACTSTKCLVVGAGPCGLRVAVELALLGARVVLVEKRTKFSRHNVLHLWPFTIHDLRALGAKKFYGRFCTGTLDHISIRQLQLLLLKVALLLGVEIHWGVTFTGLQPPPRKGSGWRAQLQPNPPAQLANYEFDVLISAAGGKFVPEGFKVREMRGKLAIGITANFVNGRTVEETQVPEISGVARIYNQSFFQSLLKATGIDLENIVYYKDDTHYFVMTAKKQCLLRLGVLRQDWPDTNRLLGSANVVPEALQRFTRAAADFATHGKLGKLEFAQDAHGQPDVSAFDFTSMMRAESSARVQEKHGARLLLGLVGDCLVEPFWPLGTGVARGFLAAFDAAWMVKRWAEGAESLEVLAERESLYQLLSQTSPENMHRNVAQYGLDPATRYPNLNLRAVTPNQVRDLYDVLAKEPVQRNNDKTDTGMPATGSAGTQEELLRWCQEQTAGYPGVHVSDLSSSWADGLALCALVYRLQPGLLEPSELQGLGALEATAWALKVAENELGITPVVSAQAVVAGSDPLGLIAYLSHFHSAFKSMAHSPGPVSQASPGTSSAVLFLSKLQRTLQRSRAKENAEDAGGKKLRLEMEAETPSTEVPPDPEPGVPLTPPSQHQEAGAGDLCALCGEHLYVLERLCVNGHFFHRSCFRCHTCEATLWPGGYEQHPGDGHFYCLQHLPQTDHKAEGSDRGPESPELPTPSENSMPPGLSTPTASQEGAGPVPDPSQPTRRQIRLSSPERQRLSSLNLTPDPEMEPPPKPPRSCSALARHALESSFVGWGLPVQSPQALVAMEKEEKESPFSSEEEEEDVPLDSDVEQALQTFAKTSGTMNNYPTWRRTLLRRAKEEEMKRFCKAQTIQRRLNEIEAALRELEAEGVKLELALRRQSSSPEQQKKLWVGQLLQLVDKKNSLVAEEAELMITVQELNLEEKQWQLDQELRGYMNREENLKTAADRQAEDQVLRKLVDLVNQRDALIRFQEERRLSELALGTGAQG
Turning to B2, the binding result in experiment [1] is recorded as “no binding”; in experiment [2], “binds”.

B3: endogenous MICAL1, Q8TDZ2 1-1067 (protein)
chain: MASPTSTNPAHAHFESFLQAQLCQDVLSSFQELCGALGLEPGGGLPQYHKIKDQLNYWSAKSLWTKLDKRAGQPVYQQGRACTSTKCLVVGAGPCGLRVAVELALLGARVVLVEKRTKFSRHNVLHLWPFTIHDLRALGAKKFYGRFCTGTLDHISIRQLQLLLLKVALLLGVEIHWGVTFTGLQPPPRKGSGWRAQLQPNPPAQLANYEFDVLISAAGGKFVPEGFKVREMRGKLAIGITANFVNGRTVEETQVPEISGVARIYNQSFFQSLLKATGIDLENIVYYKDDTHYFVMTAKKQCLLRLGVLRQDWPDTNRLLGSANVVPEALQRFTRAAADFATHGKLGKLEFAQDAHGQPDVSAFDFTSMMRAESSARVQEKHGARLLLGLVGDCLVEPFWPLGTGVARGFLAAFDAAWMVKRWAEGAESLEVLAERESLYQLLSQTSPENMHRNVAQYGLDPATRYPNLNLRAVTPNQVRDLYDVLAKEPVQRNNDKTDTGMPATGSAGTQEELLRWCQEQTAGYPGVHVSDLSSSWADGLALCALVYRLQPGLLEPSELQGLGALEATAWALKVAENELGITPVVSAQAVVAGSDPLGLIAYLSHFHSAFKSMAHSPGPVSQASPGTSSAVLFLSKLQRTLQRSRAKENAEDAGGKKLRLEMEAETPSTEVPPDPEPGVPLTPPSQHQEAGAGDLCALCGEHLYVLERLCVNGHFFHRSCFRCHTCEATLWPGGYEQHPGDGHFYCLQHLPQTDHKAEGSDRGPESPELPTPSENSMPPGLSTPTASQEGAGPVPDPSQPTRRQIRLSSPERQRLSSLNLTPDPEMEPPPKPPRSCSALARHALESSFVGWGLPVQSPQALVAMEKEEKESPFSSEEEEEDVPLDSDVEQALQTFAKTSGTMNNYPTWRRTLLRRAKEEEMKRFCKAQTIQRRLNEIEAALRELEAEGVKLELALRRQSSSPEQQKKLWVGQLLQLVDKKNSLVAEEAELMITVQELNLEEKQWQLDQELRGYMNREENLKTAADRQAEDQVLRKLVDLVNQRDALIRFQEERRLSELALGTGAQG
As to B3, the binding entry in experiment [3] and in experiment [4] was “binds” throughout.
